From PubChem BioAssay AID686979 (National Center for Advancing Translational Sciences (NCATS), 2013)
Screen size: about 420,000 compounds; about 50,000 (12%) were called active. The inconclusive results got no clear call from the source; some entries with a clear call stand among them for comparison. Calls follow the shape of the dose curve; as a rule, active = well fitted inhibition curve with a large enough effect; inconclusive = small, poorly fitted or top-dose-only effect; inactive = flat fitted curve, though single readings scatter. Potencies of inconclusive entries are left out as doubtful fits.

assay: qHTS for Inhibitors of human tyrosyl-DNA phosphodiesterase 1 (TDP1): qHTS in cells in presence of CPT; settings: chicken DT40 Tdp1-/-;hTDP1 cells + 20 nM CPT, ATP luminescence, 48 h; activity change, negative = growth inhibition: at 46.2 µM (top of the series) unless noted; also: nearly all actives have a fitted effect of over 55% in size
Outline: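 Chicken DT40 Tdp1-/- cells complemented with human TDP1, 400 cells/well, exposed to compounds plus 20 nM camptothecin for at least 48 h at 37 C; viability read as ATP content by CellTiter-Glo luminescence.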
% is scaled to controls: 0 for no effect and ±100 for the full control effect; potency is read from the fitted curve at half-maximal effect; tags tell the direction and shape of the fitted curve.

Row | SMILES | Potency | activity change, negative = growth inhibition
1 | Cc1ccc(-n2c(=O)c3c(c4cc(C)ccc4n3C)n(CC(=O)c3ccc(Cl)cc3)c2=O)cc1 | inactive | –
2 | Cc1ccc(C(=O)NC(=S)Nc2cc(-c3nc4ccccc4s3)ccc2C)cc1 | inconclusive [inhibitor, single point] | –
3 | Cc1ccc(-c2ccccc2NC(=O)CS(=O)CC(=O)Nc2ccc(C)c(Cl)c2)o1 (configuration not stated) | inconclusive [inhibitor, single point] | –
4 | CCCCCn1c(CNC(C)=O)nc2ccccc21 | inconclusive [inhibitor, single point] | –
5 | CC(C)OCCCNCC(O)c1ccccc1 (configuration not stated) | inactive | –
6 | COCC(C)NS(=O)(=O)c1ccc(C(=O)NCCCn2ccc3ccccc32)cc1 (configuration not stated) | inconclusive [inhibitor, single point] | –
7 | CCOc1cccc(C(=O)Nc2cc(C)c(O)c(-c3nc4ncccc4o3)c2)c1 | inactive | –
8 | O=C(CN(C(=O)CSc1nc2ccccc2o1)c1ccccc1F)NC1CCCCC1 | inconclusive [inhibitor, single point] | –
9 | Nc1ncn(-c2ncc(C(F)(F)F)cc2Cl)n1 | inactive | –
10 | COCCn1c(-c2ccc(OC(F)(F)C(F)C(F)(F)F)cc2)nc2c1c(=O)[nH]c(=O)n2CC(C)C (configuration not stated) | active: 20.6 µM | –
11 | COc1cc2[nH]c(=S)nc(NC3CCCCCC3)c2cc1OC | inconclusive [inhibitor, single point] | –
12 | Cc1ccc(NC(=O)c2ccc(CN3CC(=O)N4CCCCC4C3=O)cc2)c(C)c1 (configuration not stated) | inconclusive [inhibitor, single point] | –
13 | CCC1CCCCN1CCCNC(=O)CN1C(=O)COc2ccccc21 (configuration not stated) | inactive | –
14 | COc1ccc(OC)c(C2=NNC(=NCc3ccc4c(c3)OCO4)SC2)c1 | inconclusive [inhibitor, single point] | –
15 | COC(=O)Cn1c(=NC(=O)c2cc(OC)cc(OC)c2)sc2cc(OC)ccc21 | inconclusive [inhibitor, single point] | –
16 | Cc1ccc(-n2ncc3c(N4CCN(c5ccccc5)CC4)ncnc32)c(C)c1 | active: 5.8 µM | –
17 | O=C(c1ccco1)N1CCN(Cc2nnc(-c3ccccc3F)o2)CC1 | inactive | –
18 | COc1ccc(CNC(=O)CC(c2ccc(OC)cc2)N2Cc3ccccc3C2=O)cc1 (configuration not stated) | inconclusive [inhibitor, partial curve] | –
19 | COc1ccccc1CC(=O)O/N=C(\N)c1cccc([N+](=O)[O-])c1 | – | inconclusive: -35.5% [inhibitor]
20 | CCOc1ccc(CNc2nc3ccccc3n2CCN2CCOCC2)cc1 | inconclusive [inhibitor, partial curve] | –
21 | CC(=O)Nc1ccc(S(=O)(=O)N2CCN=C2SCc2ccc([N+](=O)[O-])cc2)cc1 | active: 11.6 µM | –
22 | Cc1ccccc1-c1cc(-c2ccccc2O)n[nH]1 | active: 20.6 µM | –
23 | COc1ccc(NC(=O)COC(=O)/C=C/c2ccc(OC)c(S(=O)(=O)N3CCOCC3)c2)cc1 | inconclusive [inhibitor, single point] | –
24 | Cc1ccc(-c2nc(CN(C)Cc3ccc4nccnc4c3)c(C)o2)s1 | inconclusive [inhibitor, single point] | –

Row | SMILES | Potency | activity change, negative = growth inhibition
25 | Cc1ccc(-c2nn(CC(=O)NCc3ccccc3)c3c2cnc2ccc(F)cc23)cc1C | inactive | –
26 | O=C(CSc1nccn1C1CCCC1)Nc1cc(C(F)(F)F)ccc1Cl | inconclusive [inhibitor, single point] | –
27 | Cc1c(C(=O)Nc2nnc(C(F)(F)F)s2)oc2ccccc12 | inconclusive [inhibitor, partial curve] | –
28 | Cc1cc(=O)[nH]c(SCCOc2ccc(OC(C)C)cc2)n1 | inactive | –
29 | COc1cc(C(=O)Nc2ccc3nc(N4CCN(C)CC4)cc(C)c3c2)cc(OC)c1OC | inconclusive [inhibitor, single point] | –
30 | COc1ccc(-c2nc3ccccn3c2CN2CCN(c3ccccc3F)CC2)cc1 | inconclusive [inhibitor, single point] | –
31 | CCN(Cc1ccc(C#CCCO)cc1)CC1CCCN(CCc2cccc(OC)c2)C1 (configuration not stated) | inconclusive [inhibitor, single point] | –
32 | CCOc1ccccc1NC(=O)C(=O)/C=C(\O)c1cc(OC)ccc1OC | active: 5.8 µM | –
33 | C/C(CC(=O)Nc1ccc(C)c(Cl)c1)=N\NC(=O)Cc1cccs1 | inactive | –
34 | CCOC(=O)c1[nH]c2ccc(OCC)cc2c1NC(=O)CN1CCN(c2ccccc2)CC1 | active: 20.6 µM | –
35 | Cc1c(NC(=O)C(C)(C)Oc2ccc(Cl)cc2)cccc1-c1nc2ccccc2o1 | inconclusive [inhibitor, single point] | –
36 | CCOc1ccc(Cl)cc1-c1cc(C(=O)NCC2CCCCC2)[nH]n1 | active: 4.11 µM | –
37 | Cc1cc(NCCCCCCCNc2cc(C)nc3cc([N+](=O)[O-])ccc23)c2ccc([N+](=O)[O-])cc2n1 | active: 1.64 µM | –
38 | O=C(c1ccccc1)c1c[nH]c(C(=O)C(Cl)(Cl)Cl)c1 | inconclusive [inhibitor, single point] | –
39 | Cc1cc(Br)cn2c(Cc3cccc(F)c3)c(C3CCCCC3)nc12 | inconclusive [inhibitor, single point] | –
40 | CCCCOCCCNC(=O)C[C@@H]1C[C@@]2(C(=O)OC)CC(C)(C)CC=C2N(Cc2ccco2)C1=O | active: 20.6 µM | –
41 | CC(C(c1cccs1)c1c(N)n(C)c(=O)n(C)c1=O)[N+](=O)[O-] (configuration not stated) | inactive | –
42 | O=C(c1ccc2c(c1)N(Cc1ccccc1)C(=O)c1ccccc1S2(=O)=O)N1CCc2ccccc21 | active: 4.11 µM | –
43 | COc1ccc(C(=O)Nc2ccc(C)cn2)cc1S(=O)(=O)N1CCCc2ccccc21 | inconclusive [inhibitor, single point] | –
44 | Cc1noc(C)c1-c1nc(CS(=O)(=O)c2ccc(F)cc2)no1 | inactive | –
45 | O=C(CCn1c(=O)c2ccccc2n(CC(=O)NCCC2=CCCCC2)c1=O)NCc1ccco1 | inactive | –
46 | COc1ccccc1NC(=O)C1=C(C)Nc2nc(-c3ccc(N(C)C)cc3)nn2C1c1ccncc1 (configuration not stated) | inconclusive [inhibitor, single point] | –
47 | O=C(/C=C/c1ccccc1[N+](=O)[O-])NCCc1ccc(F)cc1 | inactive | –
48 | Cc1c(C)n(Cc2ccc(F)cc2)c2ccc(C(=O)NCCN3CCOCC3)cc12 | inconclusive [inhibitor, single point] | –

Row | SMILES | Potency | activity change, negative = growth inhibition
49 | COc1ccccc1CNC(=O)CSc1ccc(-c2sc(-c3ccccc3)nc2C)nn1 | inconclusive [inhibitor, single point] | –
50 | O=C1C2CCCN2C(=O)N1CCCCN1CCN(c2ccc(F)cc2)CC1 (configuration not stated) | inactive | –
51 | O=C(c1cc(-c2cccc(Br)c2)nc2ccccc12)N1CCCC1 | inconclusive [inhibitor, single point] | –
52 | Cc1cc(F)ccc1S(=O)(=O)Nc1ccc(O)c(Sc2ncn[nH]2)c1 | inactive | –
53 | CCCOc1ccc(C(=O)NCC(c2ccco2)N(C)C)cc1 (configuration not stated) | inactive | –
54 | O=C(OCC(=O)N1CCCCCC1)c1ccc(Cl)c(S(=O)(=O)N2CCCC2)c1 | active: 23.1 µM | –
55 | O=C(COC(=O)Cc1ccc(Br)cc1)NCc1ccc2c(c1)OCO2 | inactive | –
56 | COc1ccc(N2CC(C)Cn3c2nc2c3c(=O)n(CCN3CCOCC3)c(=O)n2C)cc1 (configuration not stated) | inactive | –
57 | CC(C)COc1ccc(C(=O)Nc2sc3c(c2C(=O)O)CC(C)(C)OC3)cc1 | inconclusive [inhibitor, single point] | –
58 | Cc1ccc(-c2cc(C(F)F)nc3sc4c(=O)[nH]cnc4c23)cc1 | inconclusive [inhibitor, single point] | –
59 | CCOC(=O)c1csc(NC(=O)c2cc(OC)c(OC)c(OC)c2)n1 | inconclusive [inhibitor, single point] | –
60 | NC(c1ccccc1)c1csc(Nc2ccccn2)n1 (configuration not stated) | inconclusive [inhibitor, single point] | –
61 | CN(C(=O)CSc1nnc(COc2ccccc2)o1)c1ccccc1 | inactive | –
62 | CCC(=O)N1CCc2cc(S(=O)(=O)NC(Cc3ccccc3)C(=O)Nc3ccccc3C)ccc21 (configuration not stated) | inactive | –
63 | CCOc1ccc(OCC)c(NC(=O)c2cc3ccccn3n2)c1 | inconclusive [inhibitor, single point] | –
64 | O=C(c1cccc(F)c1)N1CCC[C@@]2(CCN(c3cccc(-c4ccccc4)c3)C2)C1 | active: 20.6 µM | –
65 | CCOC(=O)N1CCN(C(=O)c2ccc3c(c2)sc2nc(-c4ccc(OC)cc4)cn23)CC1 | inconclusive [inhibitor, single point] | –
66 | CC(=O)C1=C(c2ccccc2)NC(=S)NC1c1cc(Cl)c(OC(C)C)c(Cl)c1 (configuration not stated) | inconclusive [inhibitor, single point] | –
67 | Cc1ccc2[nH]c(=S)cc(C)c2c1 | inconclusive [inhibitor, single point] | –
68 | C/C(=N\NC(=S)Nc1ccccc1C)C1Cc2ccccc2C(=O)O1 (configuration not stated) | inconclusive [inhibitor, single point] | –
69 | O=C(NCC1COc2ccccc2O1)c1ccc(F)c(S(=O)(=O)N2CCOCC2)c1 (configuration not stated) | active: 18.4 µM | –
70 | S=c1[nH]nc(-c2ccc(Cl)cc2)n1CCCN1CCOCC1 | inactive | –
71 | COc1cccc(C(=O)NCCC2=CCCCC2)c1 | – | inconclusive: -30.5% [inhibitor]
72 | CCOC(=O)c1c(NC(=O)CSc2nnnn2C)sc(C)c1-c1ccc(C)cc1 | inconclusive [inhibitor, single point] | –
